Measured values from paper PMC4336329 (PLoS ONE, 2015).
The campaign covered roughly 310,000 compounds. About 14,000 (4.5%) showed an effect of 50% or more. The effect is printed as a negative number. This is one part of the list. Where a SMILES comes first, the peptide text is derived from it. [ ]: non-standard residue; d: D form. The star is where a group is joined. ξ: configuration not given here. ξF = NC(Cc1ccccc1)C(=O)O; Cbz = O=C(OCc1ccccc1)*

target: human ether-à-go-go-related gene (hERG) potassium channel (human, UniProt Q12809); test: primary screen, population patch clamp on CHO cells stably expressing hERG
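Note: peak tail current of the secondary pulse compared with the same well before compound.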

human ether-à-go-go-related gene (hERG) potassium channel, sequence (Q12809 whole entry, looked up): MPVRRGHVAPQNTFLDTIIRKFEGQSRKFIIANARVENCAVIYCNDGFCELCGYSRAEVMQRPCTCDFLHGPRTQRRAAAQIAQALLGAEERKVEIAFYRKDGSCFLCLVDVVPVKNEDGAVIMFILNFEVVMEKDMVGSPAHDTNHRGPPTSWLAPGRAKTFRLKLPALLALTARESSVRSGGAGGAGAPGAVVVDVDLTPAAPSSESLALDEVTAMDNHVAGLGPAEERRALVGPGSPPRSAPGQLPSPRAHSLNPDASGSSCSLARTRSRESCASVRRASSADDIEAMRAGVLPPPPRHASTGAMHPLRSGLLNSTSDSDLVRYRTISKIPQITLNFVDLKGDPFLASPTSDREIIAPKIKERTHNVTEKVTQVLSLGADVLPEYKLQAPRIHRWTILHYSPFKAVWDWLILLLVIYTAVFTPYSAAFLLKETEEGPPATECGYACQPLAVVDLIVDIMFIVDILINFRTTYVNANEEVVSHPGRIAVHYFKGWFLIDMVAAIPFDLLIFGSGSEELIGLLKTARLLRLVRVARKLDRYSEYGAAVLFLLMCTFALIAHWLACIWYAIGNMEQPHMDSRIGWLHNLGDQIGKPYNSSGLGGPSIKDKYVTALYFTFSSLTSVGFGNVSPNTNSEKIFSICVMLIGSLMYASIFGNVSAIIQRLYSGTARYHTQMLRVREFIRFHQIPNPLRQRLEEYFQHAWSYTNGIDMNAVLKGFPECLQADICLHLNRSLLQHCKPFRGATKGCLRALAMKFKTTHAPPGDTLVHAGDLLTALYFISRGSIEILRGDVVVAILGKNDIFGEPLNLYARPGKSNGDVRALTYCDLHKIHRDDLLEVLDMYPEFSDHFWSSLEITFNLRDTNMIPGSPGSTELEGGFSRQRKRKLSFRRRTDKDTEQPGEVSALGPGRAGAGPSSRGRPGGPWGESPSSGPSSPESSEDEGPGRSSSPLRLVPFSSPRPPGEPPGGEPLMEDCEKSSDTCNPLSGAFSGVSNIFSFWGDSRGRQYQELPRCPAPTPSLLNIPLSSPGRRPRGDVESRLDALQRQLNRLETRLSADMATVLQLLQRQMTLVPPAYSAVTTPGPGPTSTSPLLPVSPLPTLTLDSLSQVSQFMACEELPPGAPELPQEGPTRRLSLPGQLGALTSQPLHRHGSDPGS

Compared with `O=C(Cc1ccc([N+](=O)[O-])cc1)Nc1ccon1`, `CCSc1ccc(C(=O)Nc2cccc(C)n2)cc1[N+](=O)[O-]` is lower in “hERG current change (%, negative = inhibition) at 10uM” value: -14.9% for the first, -38.4% for the second.

Going from `CCOC(=O)N1CCC2(CC1)C(C#N)=C(N)OC1=C2C(=O)CCC1` to `O=C(c1cc2cc(Br)ccc2o1)N1CCCCC1`, the “hERG current change (%, negative = inhibition) at 10uM” value falls from -0.515% to -27.8%.

Going from `O=C(CCCOc1ccc(Br)cc1)NCCc1ccc(OC(F)F)cc1` to `CCn1ccnc1CNCc1ccc(OCC(O)CN(C)Cc2ccccc2)cc1` (stereo not shown), the “hERG current change (%, negative = inhibition) at 10uM” value rises from -67.7% to -11.7%.

Compared with `COc1ccc(C)cc1NS(=O)(=O)c1ccc2c(c1)N(C)CCO2`, `CCOC(=O)c1ccc(NS(=O)(=O)c2ccc3c(c2)oc(=O)n3C)cc1` is higher in “hERG current change (%, negative = inhibition) at 10uM” value: -16.1% for the first, -5.32% for the second.

Compared with `O=C(C1=C[C@@H](c2csc3ccccc23)C[C@@H](OCCCCO)O1)N1CCN(Cc2ccc3c(c2)OCO3)CC1`, `COc1cccc(-c2cc(C(=O)Nc3ccc4c(c3)OCO4)no2)c1` is higher in “hERG current change (%, negative = inhibition) at 10uM” value: -11% for the first, 26.4% for the second.

First: CS(=O)(=O)N1CCN(c2ccccc2NC(=O)Cc2ccc(Cl)cc2)CC1
Second: O=S(=O)(NCc1ccc(Cl)cc1)c1cccc2cccnc12
The “hERG current change (%, negative = inhibition) at 10uM” value of the first is lower: -38.4% for the first, -11.8% for the second.

Going from `CCC1SC(=NC(=O)c2ccc(Cl)c(Cl)c2)NC1=O` (stereo not shown) to `Cc1nc(C)c(C(=O)NCc2ccc(Cl)cc2)o1`, the “hERG current change (%, negative = inhibition) at 10uM” value falls from 14.6% to -7.69%.

First: CSC1=NCCN1C(=O)c1ccc2ccccc2c1
Second: Cc1cccc(C(=O)NCCC(=O)N2CCc3ccccc3C2)c1
The “hERG current change (%, negative = inhibition) at 10uM” value of the first is higher: 19.9% for the first, -13.5% for the second.

First: O=C(O)c1cc2c(cc1NC(=O)c1ccccc1C(F)(F)F)OCCCO2
Second: Cc1cc(C)c(NC(=O)CSc2nnc(CNC(=O)c3ccccc3F)o2)c(C)c1
The “hERG current change (%, negative = inhibition) at 10uM” value of the first is higher: -4.4% for the first, -6.38% for the second.

Going from `CCOC(=O)CNC(=O)C(Cc1ccccc1)NC(=O)OCc1ccccc1` (stereo not shown) (Cbz-[ξF]-Gly-OEt) to `COc1ccc(C(=O)Nc2ccccc2C(=O)NC(Cc2ccc(O)cc2)C(=O)NNC(=O)c2ccccc2Cl)cc1` (stereo not shown), the “hERG current change (%, negative = inhibition) at 10uM” value rises from -27.6% to 21.2%.

Going from `CC(=O)CC1(O)C(=O)Nc2ccccc21` (stereo not shown) to `COc1ccccc1NC(=O)NCCN1CCNC1=O`, the “hERG current change (%, negative = inhibition) at 10uM” value falls from 1.02% to -0.253%.

Going from `COc1cc(/C=C2/C(=O)NN(c3cccc(Cl)c3)C2=O)cc(OC)c1O` to `COc1cc(OC)c(C(=O)NC2CCCc3ccccc32)cc1OC` (stereo not shown), the “hERG current change (%, negative = inhibition) at 10uM” value falls from -0.00632% to -10.4%.

Going from `O=C(CCN1C(=O)/C(=C/c2ccccc2)SC1=S)N1CCCCCC1` to `Cc1ccc(C(=O)N/C(=C/c2cccnc2)C(=O)N2CCCCCC2)cc1`, the “hERG current change (%, negative = inhibition) at 10uM” value falls from 14.7% to -10.2%.

Going from `CC(=O)N(C)C1(c2nnnn2CCOC(=O)Nc2cccc3ccccc23)CCCC1` to `CCn1c(=O)c2ccccc2n2c(SCC(=O)N3CCCc4ccccc43)nnc12`, the “hERG current change (%, negative = inhibition) at 10uM” value rises from 0.969% to 8.86%.

Going from `CCn1cc(CN2CCC(C(=O)Nc3cccc(-c4cccc(F)c4)c3)CC2)cn1` to `CC(C1CC1)N(Cc1ccccc1)C(=O)NC(=O)c1cccc(F)c1` (stereo not shown), the “hERG current change (%, negative = inhibition) at 10uM” value rises from -66.4% to -7.69%.

Going from `N#C/C(=C\c1ccc(OC(=O)c2ccc(Br)s2)cc1)c1nc2ccccc2[nH]1` to `Cc1nn(-c2ccccc2)c(C)c1/C=N/NC(=O)c1cc(-c2ccc(Br)s2)[nH]n1`, the “hERG current change (%, negative = inhibition) at 10uM” value falls from 20% to -8.87%.

First: O=C(O)CCN1C(=O)c2ccc(NC(=O)C(c3ccccc3)c3ccccc3)cc2C1=O
Second: O=C(O)c1ccc(N2CCN(C(c3ccccc3)c3ccccc3)CC2)c([N+](=O)[O-])c1
The “hERG current change (%, negative = inhibition) at 10uM” value of the first is lower: 15.4% for the first, 35.7% for the second.

First: CCCCOC(=O)CN1C(=O)c2ccc(C(=O)OCCCC)cc2C1=O
Second: CCCCCCCCCOC(=O)C[n+]1csc(CCO)c1C.[Cl-]
The “hERG current change (%, negative = inhibition) at 10uM” value of the first is higher: 4.54% for the first, -42% for the second.

Going from `CC1CCN(C(=O)c2ccc3c(c2)OCO3)CC1` to `NC(=O)C1CCCN(C(=O)c2ccc3nc(Cc4cccc(Cl)c4)oc3c2)C1` (stereo not shown), the “hERG current change (%, negative = inhibition) at 10uM” value falls from 20.3% to -11.5%.

Compared with `O=C1C2C3C=CC(c4ccccc4)(C2C(=O)N1c1cccc(Cl)c1)C1C(=O)N(c2cccc(Cl)c2)C(=O)C31` (stereo not shown), `O=c1c2ccccc2nc(-c2ccc(Cl)cc2)n1C1CCS(=O)(=O)C1` (stereo not shown) is lower in “hERG current change (%, negative = inhibition) at 10uM” value: 8.39% for the first, -2.23% for the second.

Compared with `COc1cc(/C=N/NC(=O)/C(=C/c2ccccc2)CCO)ccc1O`, `CCN(CC)C(=O)COc1ccc(/C(C)=N/NC(=O)c2ccccc2O)cc1` is higher in “hERG current change (%, negative = inhibition) at 10uM” value: -13.5% for the first, 1.9% for the second.

First: CCC(=NCc1ccccc1)c1c(C(F)(F)F)[nH]n(-c2nc3ccccc3s2)c1=O
Second: CCC1(C)Cc2ccccc2-c2nc(-c3ccccc3)oc(=O)c21 (stereo not shown)
The “hERG current change (%, negative = inhibition) at 10uM” value of the first is lower: 12.6% for the first, 18.8% for the second.

First: Cc1nc(-c2ccccn2)nc(N(C)c2ccccc2)c1Cl
Second: Cc1nc(-c2ccc(Cl)cc2)sc1C1(C)CC(c2ccccc2)=NO1 (stereo not shown)
The “hERG current change (%, negative = inhibition) at 10uM” value of the first is lower: -18.8% for the first, 12.5% for the second.

First: O=C(Nc1ccc(F)cc1)c1ccc(NC(=O)C2CCCO2)cc1 (stereo not shown)
Second: CCOC(=O)c1ccc(NC(=O)NCc2ccncc2)cc1
The “hERG current change (%, negative = inhibition) at 10uM” value of the first is higher: 18.4% for the first, 1.76% for the second.

First: CCOC(=O)CCC(=O)Nc1ccc(S(=O)(=O)N2CCCCC2)cc1
Second: Cc1ccc(S(=O)(=O)N(CC(=O)NCc2cccnc2)C2CCCCC2)cc1
The “hERG current change (%, negative = inhibition) at 10uM” value of the first is higher: 0.0788% for the first, -63.3% for the second.

Going from `CCOc1ccc(C(=O)Cc2cc(OC)c(OC)cc2[N+](=O)[O-])cc1` to `CCN(Cc1cc2cccc(C)c2[nH]c1=O)C(=O)c1ccccc1OC`, the “hERG current change (%, negative = inhibition) at 10uM” value falls from 9.61% to -7.54%.

First: O=C(C1=C(O)C(=O)N(c2ncccn2)C1c1cccs1)c1ccco1 (stereo not shown)
Second: O=C(NCCNC(=O)c1ccccn1)c1cccc(F)c1
The “hERG current change (%, negative = inhibition) at 10uM” value of the first is lower: 14.3% for the first, 23.7% for the second.

Compared with `CCOC(=O)Cc1nnc(NC(=O)COc2ccc(F)cc2)s1`, `Cc1nc(C)c(C(=O)OCC(=O)Nc2cccc(C)c2C)s1` is lower in “hERG current change (%, negative = inhibition) at 10uM” value: 5.76% for the first, -1.38% for the second.

Compared with `COc1ccccc1C(=O)NC(=Nc1nc2ccccc2o1)NC(=O)c1ccccc1OC`, `COc1cccc(O)c1CN1CCCC(C(=O)c2ccccc2SC)C1` (stereo not shown) is lower in “hERG current change (%, negative = inhibition) at 10uM” value: 14% for the first, -44.1% for the second.

Going from `O=C(CN1C(=O)COc2ccccc21)NNC(=O)Nc1ccccc1F` to `Cc1ccc2c(c1)N(CC(=O)NCc1ccco1)C(=O)CO2`, the “hERG current change (%, negative = inhibition) at 10uM” value rises from 7.15% to 8.59%.

First: O=C(NCc1ccccc1Cl)C1CCC(=O)N(CCCN2CCCC2=O)C1 (stereo not shown)
Second: O=C(CSc1nc2c(sc3ccccc32)c(=O)n1CCCN1CCOCC1)NC1CCCC1
The “hERG current change (%, negative = inhibition) at 10uM” value of the first is higher: 9.01% for the first, -64.7% for the second.

Compared with `CCC(C)Sc1ccc(-c2nc3cnccn3c2NC2CCCCC2)cc1.O=C(O)C(F)(F)F` (stereo not shown), `COc1ccc(Nc2nc(N)nc(CN(C)C3CCCCC3)n2)cc1` is lower in “hERG current change (%, negative = inhibition) at 10uM” value: 8.78% for the first, -57.5% for the second.

First: N/C(=N\OC(=O)CC1CCCCC1)c1ccc(Br)cc1
Second: CN1CCN(C(=S)c2ccc(Br)cc2)CC1
The “hERG current change (%, negative = inhibition) at 10uM” value of the first is higher: 8.25% for the first, -35.9% for the second.

Going from `Cc1sc(-n2c(C)ccc2C)c(C#N)c1C` to `Cc1ccc(OCCCCc2c(C)n[nH]c2C)cc1`, the “hERG current change (%, negative = inhibition) at 10uM” value falls from -2.26% to -2.3%.

Going from `Cc1ccc2occ(CN3CC4CC(C3)c3cccc(=O)n3C4)c(=O)c2c1` (stereo not shown) to `Cc1ccc2[nH]c(=O)c3cc(C(=O)NCCN4CCN(C)CC4)sc3c2c1`, the “hERG current change (%, negative = inhibition) at 10uM” value rises from -63.9% to 2.64%.

Compared with `C=CCSc1nnc(NC(=O)C2=COCCO2)s1`, `O=C(Nc1ccc(N2CCOCC2)cc1)c1cccc(-n2cnnc2)c1` is higher in “hERG current change (%, negative = inhibition) at 10uM” value: 9.51% for the first, 17% for the second.

First: Cc1ccc(C)c(NC(=S)NC(NC(=O)N(C)C)C(Cl)(Cl)Cl)c1 (stereo not shown)
Second: COc1cc(OC)cc(C(=O)NC(=S)Nc2nnn(C)n2)c1
The “hERG current change (%, negative = inhibition) at 10uM” value of the first is lower: -9.76% for the first, 12.7% for the second.

Compared with `NC(=O)c1ccsc1NC(=O)CCS(=O)(=O)c1ccccc1`, `CN(C)S(=O)(=O)c1ccc(Cl)c(NC(=O)COC(=O)c2ccc(O)cc2)c1` is lower in “hERG current change (%, negative = inhibition) at 10uM” value: 1.27% for the first, 0.26% for the second.

Going from `NNC(=O)c1cncn1-c1ccc(F)cc1` to `Cc1cc(F)ccc1S(=O)(=O)Nc1ccccc1C(=O)Nc1ccc2[nH]c(=O)[nH]c2c1`, the “hERG current change (%, negative = inhibition) at 10uM” value falls from 23.7% to 10.9%.

Compared with `CC(C)CNC(=O)CSc1nc(-c2cccs2)cc(C(F)(F)F)n1`, `Cc1cccc(C)c1OCc1cc(C(=O)N(Cc2nccn2C)C(C)C)no1` is higher in “hERG current change (%, negative = inhibition) at 10uM” value: -13.7% for the first, -5.91% for the second.

First: C/C(=N/Nc1nc(C)cc(C)n1)c1ccc(Br)cc1
Second: COc1ccc(/C(N)=C/C(=O)C(C)(C)C)cc1
The “hERG current change (%, negative = inhibition) at 10uM” value of the first is lower: -14.9% for the first, -5.64% for the second.

Compared with `O=C(OCc1nnc(-c2ccccc2)o1)c1cccc(S(=O)(=O)N2CCOCC2)c1`, `N#CCn1cnc2c(oc3ccccc32)c1=O` is higher in “hERG current change (%, negative = inhibition) at 10uM” value: -31% for the first, 8.96% for the second.

Going from `CO[C@@]1(NC(=O)Cc2cccs2)C(=O)N2C(C(=O)[O-])=C(COC(N)=O)CS[C@@H]21.[Na+]` to `COc1cccc(NC(=S)N(CCCN2CCN(C)CC2)Cc2ccco2)c1`, the “hERG current change (%, negative = inhibition) at 10uM” value falls from 14% to -36.2%.

First: C=CCn1c(-c2cccc(OC)c2OC)n[nH]c1=S
Second: CC(C)c1nc2sc3c(=O)[nH]cnc3c2c2c1CCCC2
The “hERG current change (%, negative = inhibition) at 10uM” value of the first is lower: -24.3% for the first, 12.1% for the second.
